Measurements reported in PMC4336329 (PLoS ONE, 2015).
Out of some 310,000 compounds screened, about 14,000 (4.5%) showed an effect of 50% or more. The effect is printed as a negative number. Some of the results follow.

Molecular target: human ether-à-go-go-related gene (hERG) potassium channel (human, UniProt Q12809)
Assay: primary screen, population patch clamp on CHO cells stably expressing hERG
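Further: peak tail current of the secondary pulse compared with the same well before compound.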

human ether-à-go-go-related gene (hERG) potassium channel, sequence (Q12809 whole entry, looked up): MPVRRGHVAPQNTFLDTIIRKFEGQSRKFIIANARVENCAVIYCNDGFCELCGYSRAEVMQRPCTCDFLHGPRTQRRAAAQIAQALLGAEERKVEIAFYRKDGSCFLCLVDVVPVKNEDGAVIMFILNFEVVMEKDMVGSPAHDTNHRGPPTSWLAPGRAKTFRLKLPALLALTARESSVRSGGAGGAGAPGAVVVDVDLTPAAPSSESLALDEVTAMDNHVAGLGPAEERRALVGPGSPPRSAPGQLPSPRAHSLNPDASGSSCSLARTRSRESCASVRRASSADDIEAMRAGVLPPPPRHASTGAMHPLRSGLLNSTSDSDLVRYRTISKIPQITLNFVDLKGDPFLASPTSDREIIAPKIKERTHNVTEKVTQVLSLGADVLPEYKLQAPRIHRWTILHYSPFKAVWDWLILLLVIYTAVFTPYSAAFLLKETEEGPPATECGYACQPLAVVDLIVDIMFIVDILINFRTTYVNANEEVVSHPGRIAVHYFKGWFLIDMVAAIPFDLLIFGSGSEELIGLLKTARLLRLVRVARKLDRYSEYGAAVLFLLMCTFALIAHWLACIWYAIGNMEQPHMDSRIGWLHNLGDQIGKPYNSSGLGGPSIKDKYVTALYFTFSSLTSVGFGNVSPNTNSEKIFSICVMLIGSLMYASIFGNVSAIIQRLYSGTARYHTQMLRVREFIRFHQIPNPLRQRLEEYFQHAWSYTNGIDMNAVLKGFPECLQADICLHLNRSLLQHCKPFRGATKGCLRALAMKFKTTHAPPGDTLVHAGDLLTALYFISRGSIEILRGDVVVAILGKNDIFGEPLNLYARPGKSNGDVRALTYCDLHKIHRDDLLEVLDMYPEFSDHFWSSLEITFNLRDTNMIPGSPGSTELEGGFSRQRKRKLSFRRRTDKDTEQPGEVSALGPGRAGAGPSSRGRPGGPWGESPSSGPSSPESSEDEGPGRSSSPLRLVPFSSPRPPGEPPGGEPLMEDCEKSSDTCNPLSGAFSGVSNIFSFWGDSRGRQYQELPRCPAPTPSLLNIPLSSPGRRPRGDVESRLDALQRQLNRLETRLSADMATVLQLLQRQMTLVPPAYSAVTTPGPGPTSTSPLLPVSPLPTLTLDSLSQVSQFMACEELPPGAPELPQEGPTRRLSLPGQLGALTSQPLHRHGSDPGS

In order of rising “hERG current change (%, negative = inhibition) at 10uM” value:
1. O=C(NCCN1CCN(C(=O)c2cccs2)CC1)C(=O)Nc1ccc(Br)cc1  -73.7%
2. O=[N+]([O-])c1ccc(-n2cnc3ccccc32)c([N+](=O)[O-])c1  -57.8%
3. CCS(=O)(=O)N1CCN(C(=O)COc2ccc(-c3ccccc3)cc2)CC1  -47.4%
4. CC(C)OCCCn1c(-c2ccc(Br)cc2)c[nH]c1=S  -47.3%
5. NC(=O)C(c1ccc(Sc2ccccc2)nn1)c1ccc(Cl)cc1Cl (stereo not shown)  -43.9%
6. CCC(c1nnnn1C1CCCC1)N1CCN(Cc2ccccc2)CC1.Cl (stereo not shown)  -34.6%
7. O=C(CN1CSCC1=O)N1CCN(S(=O)(=O)c2ccc(Cl)cc2)CC1  -26.6%
8. CN1C(=O)C(C)(C)c2cc(S(=O)(=O)N3CCN(c4ccccc4)CC3)ccc21  -25.5%
9. COc1cc(C2NCc3ccccc3-n3cccc32)ccc1O.Cl (stereo not shown)  -23%
10. O=C(c1ccc(C(F)(F)F)cc1)C1CCCN(C(=O)c2csnn2)C1 (stereo not shown)  -22.6%
11. O=C(Cc1ccc(F)cc1)Nc1cccc(-c2ccc3nncn3n2)c1  -21.4%
12. NC(=O)NC(=O)CSc1nc(-c2ccccc2)c(-c2ccccc2)n1CC1CCCO1 (stereo not shown)  -18.1%
13. Cc1cccc(C)c1N(CC(=O)Nc1cccc(N(C)S(C)(=O)=O)c1)S(C)(=O)=O  -15.1%
14. CN1C/C(=C/c2cccs2)C(=O)/C(=C\c2cccs2)C1  -13.8%
15. CS(=O)(=O)N(CC(=O)Nc1ccccc1C(=O)NCCc1ccccc1)c1ccc2c(c1)OCCO2  -13.1%
16. Cc1[nH]n(-c2ccccc2)c(=O)c1C=NCCc1ccccc1  -12.7%
17. O=C(Nc1ccc(Cc2ccncc2)cc1)c1ccc(Cl)c([N+](=O)[O-])c1  -12.3%
18. COc1ccc(NC(=O)c2ccc(-n3cccn3)c([N+](=O)[O-])c2)cc1  -12.3%
19. CCC(=O)N/C(=N/c1nc(C)cc(C)n1)Nc1cccc(OC)c1  -11.4%
20. Cc1ccc(NC(=O)NCCN2CCCCC2)cc1  -11%
21. COc1ccc(C)cc1NC(=O)NCCC1=CCCCC1  -10.8%
22. COc1ccc(CN=Cc2[nH]c3ccc(Br)c(Cl)c3c2O)cc1  -9.91%
23. O=C(CN1C(=O)CCSc2ccc(S(=O)(=O)N3CCCC3)cc21)NCc1ccccc1Cl  -9.59%
24. O=C(NCc1ccccc1)C(c1ccccc1)N(C(=O)c1csnn1)C1CC1 (stereo not shown)  -9.35%
25. O=C(Nc1ccc(Br)cc1)c1cccc(NC(=O)C2C3CC4OC(=O)C2C4C3)c1 (stereo not shown)  -7.02%
26. CSc1ccccc1C(=O)N1CCc2ccccc2C1  -6.97%
27. Cc1ccc(-n2c(SCC(=O)NCc3ccco3)nc3sc4c(c3c2=O)CC(C)(C)SC4)cc1  -6.39%
28. COc1ccc(-c2nc3ccccc3c(=O)n2CCN2CCOCC2)cc1  -5.54%
29. COc1ccccc1/C=C1\SC(=S)N(N2C(=O)CCCC2=O)C1=O  -4.43%
30. CCc1nc2c(cnn2-c2ccc(Cl)cc2)c(=O)n1-c1ccc(OC)cc1  -3.59%
31. COc1ccc(-n2c(N)c(Br)c(=O)[nH]c2=O)cc1  -3.12%
32. CCSc1nnc(NC(=O)CSc2nccn2-c2cc(C)cc(C)c2)s1  -2.92%
33. Cc1ccc(NC(=O)Cn2c(=O)c3cccn3c3ccccc32)c(C)c1  -2.61%
34. COc1ccc(NC2CCCN(C(=O)CSc3ccccc3)C2)cc1 (stereo not shown)  -2.05%
35. CN(Cc1cccs1)C(=O)CCc1c[nH]c2ccccc12  -1.59%
36. CCSc1nnc(NC(=O)Cc2cccc(OC)c2)s1  -1.05%
37. O=C(NCc1ccccc1)C(=O)NCC(c1ccco1)N1CCN(c2ccccc2F)CC1 (stereo not shown)  -0.97%
38. COC(=O)c1ccccc1NC(=O)Cn1nnc(-c2ccc(OC)cc2)n1  -0.407%
39. Cc1ccc(N(C(=O)CCl)C(C(=O)NC2CCCCC2)c2cccnc2)cc1C (stereo not shown)  -0.326%
40. COc1ccc(-c2nc3ccccc3c(=O)n2-c2c(C)n(C)n(-c3ccccc3)c2=O)cc1  -0.296%
41. Cn1nnnc1SC(C(=O)Nc1ccc(F)cc1)c1ccccc1 (stereo not shown)  0.428%
42. Cc1cc2oc(=O)cc(CN3CCN(S(=O)(=O)/C=C/c4ccccc4)CC3)c2cc1C  1.24%
43. Cc1c(NC(=O)NC(=O)c2ccc(F)cc2)c(=O)n(-c2ccccc2)n1C  1.36%
44. C#CCOC(=O)Nc1ccc(OCC(F)(F)F)nc1  1.66%
45. O=C(NCC1CCCO1)C(c1cccs1)N(Cc1ccccc1)C(=O)c1ccc(-c2ccccc2)[nH]1 (stereo not shown)  2.82%
46. COc1ccc(-c2nc3ccccn3c2NC2CCCCC2)cc1SC1CCCCC1.O=C(O)C(F)(F)F  2.91%
47. COc1ccc(C)cc1S(=O)(=O)N(CC(=O)Nc1cc([N+](=O)[O-])ccc1C)c1ccc(C)c(C)c1  3.15%
48. COc1ccc(NC(=O)C2CCCN(c3ncccn3)C2)cc1 (stereo not shown)  3.4%
49. COc1cc(CNc2ccc(C)c(C)c2)cc(OC)c1OC  3.55%
50. O=C(Cn1cc(S(=O)(=O)Cc2ccccc2)c2ccccc21)Nc1ccccc1  4.23%
51. Cc1cc(C)c(C#N)c(N2CCSCC2)n1  4.36%
52. CCN1C(=S)N[C@@H](c2cccs2)C(C(=O)OC)=C1C  4.42%
53. CCC(=O)Nc1nnc(S(=O)(=O)N2CCc3ccccc32)s1  4.56%
54. CC(=O)Nc1ccc(S(=O)(=O)Nc2nc3c(s2)CCCC3)cc1  4.81%
55. O=C(c1ccc(OC(F)(F)F)cc1)c1ncc[nH]1  5.8%
56. COc1ccc(C(=O)c2coc3ccc(O)cc23)cc1  7.61%
57. O=C(CCC1CCCCC1)NCCS(=O)(=O)N1CCN(c2ccccc2)CC1  7.85%
58. COc1ccc(-n2c(=S)[nH]c3ncccc3c2=O)cc1  7.98%
59. CCOC(=O)c1cc(=O)n2c(nc3ccccc32)[nH]1  8.23%
60. COc1ccc(NC(=O)Nc2ccc([N+](=O)[O-])cc2)cn1  9.11%
61. CC(C)(C)c1ccc2c(c1)N(CC(=O)N1CCOCC1)C(=O)CO2  9.15%
62. N#C/C(=C(/O)COc1ccccc1)c1nnc2n1CCCCC2  9.43%
63. O=C(Nc1ccccc1)Nc1ccc2ocnc2c1  9.9%
64. Cc1ccc(Cn2c(=O)oc3ccccc32)cc1  10.5%
65. COC(=O)c1ccccc1NC(=O)c1sc(N)nc1C  11.1%
66. CN1CCC(NC(=S)NC2CC2)CC1  11.9%
67. CN1CCN(NC(=O)c2ccc(Br)c(S(=O)(=O)N3CCOCC3)c2)CC1.Cl  12.8%
68. Cc1ccc(NC(=O)c2c(C(F)(F)F)nn(C)c2SCc2ccc(Cl)cc2)cc1C  13.4%
69. CCc1nnc(NC(=O)CCC(=O)N2CCN(Cc3ccc(F)cc3)CC2)s1  13.5%
70. Cc1ccccc1NN=Nc1nc2c([nH]1)c(=O)n(C)c(=O)n2C  13.6%
71. Cc1ccc(-c2nc3ccccc3o2)cc1NC(=S)NC(=O)/C=C/c1ccco1  13.7%
72. Cc1noc(C)c1NC(=O)NCCN1CCN(Cc2ccccc2)CC1  13.7%
73. COc1ccc(-n2nc(C(=O)NCC(=O)N3CCCC3)c3ccccc3c2=O)cc1  14%
74. CCC(=O)Nc1nc2c(c(=O)[nH]1)CCCC2  14.7%
75. CC1CC(C)CN(S(=O)(=O)N2CCC(C(=O)NCc3ccco3)CC2)C1 (stereo not shown)  15.1%
76. COC(=O)C1=C(c2cccc3c2S(=O)(=O)c2ccccc2-3)C[C@@H]2CC[C@H]1N2C(=O)N1CCc2cc(OC)c(OC)cc2C1  15.4%
77. [O-]/[N+](=C\C=C\c1ccccc1)c1ccccc1  15.4%
78. CC(=O)Nc1ccc(S(=O)(=O)Nc2nnc(C3CCCCC3)s2)cc1  15.8%
79. CN(C)C(CNC(=O)C1CC(=O)N(Cc2ccccc2)C1)c1ccccc1 (stereo not shown)  16.1%
80. O=C(NCc1cccnc1)C(=O)NCC(c1ccco1)N1CCOCC1 (stereo not shown)  16.9%
81. Cc1ccc(NC(=O)CCS(=O)(=O)c2cccc3nonc23)cc1Cl  17.7%
82. COc1ccc(C)cc1NC(=O)c1cc2c(=O)n3ccccc3nc2n1C  18.3%
83. Cc1nnc(SCC(=O)Nc2ccc(-c3nc4ccccc4s3)cc2)s1  23.4%
84. NC(=O)c1ccc(N2CCNC(=O)C2)c([N+](=O)[O-])c1  23.5%
85. O=C(NC(Cc1ccccc1)C(=O)O)/C(=C\c1ccc(Cl)cc1)NC(=O)c1ccccc1 (stereo not shown)  23.8%
86. NC(=O)NC(Cc1ccccc1)C(=O)O (stereo not shown)  24.8%
87. NC(=O)c1ccc(NC(=O)C2CC2)cc1  26.7%
88. O=c1[nH]c(/C=C/c2cccc3ccccc23)nc2ccccc12  36.4%
